Test results published in the supplement of paper PMC11417369.
This is one part of the list.

Test system: PF3D7_0420300 AP2 domain 1 (GST-tagged)
Experiment: gcPBM binding intensity (ln(normalized median fluorescence intensity)); higher = stronger DNA binding
Outline: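 Binding of GST-tagged P. falciparum DNA-binding domains, expressed in E. coli and used at about 25 μg on average, was carried out for 1 h in 1× PBS containing 1% milk, 0.2 mg/ml BSA, 0.5% salmon testes DNA and 0.03% Triton X-100. The target was an Agilent 4 × 180k array of primer-extended double-stranded 36-bp intergenic genomic probes plus negative controls, read with Alexa488 anti-GST antibody at 488 nm. Binding intensity is the highest Masliner-normalised natural-log median intensity across replicate spots of either probe orientation.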

Sequence | gcPBM binding intensity (ln)
TATAAAAATATATGCACACAAATAAAAAATTATATA [CACACA_site3629] | 9.44
TATATTTATACAATATGTACATATTATATATATATA [XGTACX_site3098] | 9.03
TGAATTGTAATTTATAATATACGTGGTTTCTACTTA [CACACA_negctrl_site559] | 9.15
ATTTAATAACGGCATGCATGTCCTTATATAAATTTA [TGCATGCA_site1012] | 9.11
TATTATATATTATATAGTACATATTTATGTAAGAGG [XGTACX_site3099] | 9.2
CCTTACCAAATAATATGTACACATTTAATGTTATAT [XGTACX_site7840] | 9.29
CACTTAAAAAAAATACGTACACATATATATATATAT [XGTACX_site2054] | 9.21
TATCAGTATACAACAACACACATAATGTTTGTCATC [CACACA_site2980] | 9.71
CAAAAATAAATATAAACACACAATAAATAAATAAAT [CACACA_site891] | 9.91
TTTATATGCAATTAAGTGCATAAGAAAAAAAAAGGA [GTGCAC_site9966] | 9.05
CAAACAAATTGTGAAACACACATATTTATATTTATA [CACACA_site7030] | 9.13
TTATAAAATAAACTTACACACATGAAATATTATAGT [CACACA_site7000] | 9.75
TCATAGCACAAAAAATGTACTTATTATTTAATATTT [XGTACX_site5687] | 9.15
ATGTGATAATTTAATAGTACATAACAGTTTAACAAT [XGTACX_site5854] | 9.68
TTTGTTTTATGTGGTTGTACACAAATACAATTTAAA [XGTACX_site5156] | 8.98
TATATTATATATTTATGTACGTATTTGTAAAAAGAT [XGTACX_site3444] | 9.18
TTATAATAAATATTTATTATATATAATATATATTAC [CACACA_negctrl_site1802] | 8.99
TTTTTTATTAAATATATATAATAATAATAATTTGTA [CACACA_negctrl_site1719] | 8.78
GTTTCCTTAATATTCACACACATATCTATAATATAT [CACACA_site6959] | 9.87
ATAATAATTATATCAGTGCGCATATATATTTATTTA | 9.28
GTTGTGTAATTCGTAACACACATAAAATATATATAA [CACACA_site6059] | 9.22
ATATAGTTCGATATAGTTAGTATGAATTGAAAAATA [CACACA_negctrl_site1826] | 9.09
TTTTTAAAATATTTAACACACAATTTTAATGCATAA [CACACA_site6036] | 9.02

Sequence | gcPBM binding intensity (ln)
AAAAAAATAAAACACACACACAAAAAAATAAAAATA [CACACA_site465] | 10.2
AAAAACAATCATTTTAAATAAAAATCTCTAATTTAA [GTGCAC_negctrl_site138] | 8.85
ATTTGTTCATTTGGTTGTACATAATTTATTTTTATA [XGTACX_site785] | 9.67
ATTTCTTTAATATACACACACCAAAACAAAAAAAAA [CACACA_site6416] | 9.84
TTTTCATTTTTTTTTTTTTTTTTTTTTCTTTTTTTT [CACACA_negctrl_site1312] | 9.22
AAAAAAAAAACAAATGCATGTAATATAAGAATTACA [TGCATGCA_site908] | 9.27
ACTTATAATATTTAGTGTACATATTGTGACTAATAC [XGTACX_site1508] | 9.36
TATTTATAAATTTACACACACACATGTGAACATAAA [CACACA_site1909] | 9.89
ATTTTAAAAAATTAATGTACTTAATTAATACTGAAA [XGTACX_site7702] | 8.78
TATCAAAAAAAAAGTAGTACGATAATAGTTTCCCAA [XGTACX_site1812] | 9.33
GAAATTAAATGACATACACACTATATTATATATTTT [CACACA_site5693] | 9.5
TAGATAGATTAAAATACATGCATATTATTAAAAAAT [TGCATGCA_site739] | 9.18
CACCCATACACATACAAACACACATTCTATATATAT [CACACA_site1600] | 9.77
CATACATACATACATACACACATACATATGTATATA [CACACA_site7216] | 9.56
AGCATAAAAATGATATGTACATATATATATATATAT [XGTACX_site2836] | 9.14
TATCTTCAATGTGAAAGTACTTAAATTGTTATAAAA [XGTACX_site2586] | 8.89
AATCATAAACATTATGCACACAAAAATAAAAAAAAA [CACACA_site8289] | 9.63
ATTTAATGTATTTTGCGTACGAATTATTTTATTTCA [XGTACX_site7331] | 9.44
TGGAATAAAAAAAGGAGTACAATTAATTATTCTTAA [XGTACX_site8299] | 9.24
TATATATATATATATGTGCACATATTTATATGTTTT | 9.16
ATCATTTTTATGTACACACACATATACGTTGAATAT [CACACA_site1865] | 9.89
ACATCATAAAATTTATGTACACATTTTTAATTATAC [XGTACX_site7759] | 9.23
AAGGTATACACTGCTTTATCAAGTTTAACTCTTTTT [XGTACX_negctrl_site118] | 9.26

Sequence | gcPBM binding intensity (ln)
TATAAAATTTACGTGTGTACATATTTAATAATTTTT [XGTACX_site5001] | 9.4
AAGATATGAGGGAATACACACATATTTATATTTATA [CACACA_site6846] | 9.51
TAAATATAGAAACACACACACATTAATACATATATT [CACACA_site3489] | 10
AAATTTGAAATGCATGAACACACACCGCTATAAATG [CACACA_site8230] | 9.68
TAATTTTTTATATATTGTACAAATAATATATGATGT [XGTACX_site268] | 9.19
TTTATGTATTTAATATGTACATATAGTTGTTAATAA [XGTACX_site1938] | 9.21
AAAATGTACGCATATACACACACATAAATAGATACG [CACACA_site9124] | 9.96
GCTATATATTAATGTTGTACTTTATGTTCATATTGT [XGTACX_site3619] | 9.59
AAGAAATAAATACATACACACATATATAAATAAATA [CACACA_site7559] | 9.89
AAGAAATAATTATTATGTACTTAAAAAAATTAAAAT [XGTACX_site7423] | 9.16
ATATATATATAATTATATAAAATATATCATATGTTA [XGTACX_negctrl_site47] | 9.15
CTTTCCATATATGATAGTACACGATAAAAAAAAAAA [XGTACX_site5772] | 9.02
AAAGAAATAAGGTGCACACATATACATATATATATA [CACACA_site429] | 9.61
TTTAAAAAAAATTCATATTATATATATATATATTAT [CACACA_negctrl_site1733] | 8.88
TAATAATAGTACTGACATCAAAATCTTATTAAAAAT [GTGCAC_negctrl_site308] | 9.16
TTCTTTTTTATTTTTCAACACACATAATAAATTTCT [CACACA_site8253] | 9.57
TTCGTAATTTATATCACACACATATATATATAATAA [CACACA_site3115] | 9.51
TACCCTTGCATGTAGGTGCAATTTTTTTTTTTTTTT | 9.3
CAACTTTATACATATAGTACAAGTTATATTTTATTA [XGTACX_site6651] | 9.08
AACGATTTACATCACTGTACTAATGATATACCTCAT [XGTACX_site7463] | 9.38
TATATATATATATATTGTACTATATAGTATCTTTTT [XGTACX_site1646] | 9.38
TATATATTTTCTTTTGCACACTGTTTTCCTTTTTTT [CACACA_site2739] | 9.72
TTACTATAAAATGTCACACATTCTGTTTCCTTACTT [CACACA_site5714] | 9.3

Sequence | gcPBM binding intensity (ln)
ATTTTTTCTCATAAAAACGTGAACGTTTATTTTACA [CACACA_negctrl_site1041] | 9.11
TATAAATATCTGTATGCACACATTTTTTTTGGAAAA [CACACA_site4734] | 9.2
TCAACAAAATTGAAGGAACACACATACATATATATA [CACACA_site7940] | 9.65
AGCACATAAATAATTAAACACACATTGTTCTAGACA [CACACA_site8746] | 9.52
TTATACATATTTATATGTACGTAATATAATATTAAT [XGTACX_site6520] | 9.12
TTATAATTTTTCTATTGTACATTTAATAATATATAT [XGTACX_site7326] | 9.22
ATGAAGAAATAAATGTGTACATATCTTAGTATCATA [XGTACX_site8658] | 9.36
TATTTAATTTATACACGTACATATATAAATAATACA [XGTACX_site1148] | 9.21
TATAATGATGATGATAGTACGTATTAGTATAAAAAA [XGTACX_site9] | 9.33
TCATGGGTGTATTTCACACACGGATAATCATTTATA [CACACA_site4663] | 9.29
ATATTTTTTTTTGTTACACACGTTTTTTAAAAAATG [CACACA_site1603] | 9.6
TCATAAAAATAAAAATGTACACATTAGAAATATTGT [XGTACX_site3671] | 9.23
AGAAATAAAAAAAAAAATATATATATTATATATATA [CACACA_negctrl_site1799] | 8.87
GCAAGTCCATGAACGGTGCAGGAATTAACAAAAATA | 8.99
AATAAAAATAAAAGCACACATAAATATATATATATT [CACACA_site1441] | 9.7
TCATGGCCATTTTCAGTGCATATGTGTATTTAATAT [GTGCAC_site9529] | 9.35
AAAAAAATACATACGTGTACCCACATATATGTATCT [XGTACX_site5319] | 9.19
GTTTCTACTTATATAACAGGACACGTGTGAATAATT [TGCATGCA_negctrl_site430] | 9.42
ACAATTGCATCTATCACACATACATACATACATACA [CACACA_site5063] | 9.71
TTGAAGGTGGCAATGTGTACATAGAATAACCAGTGC [XGTACX_site4738] | 9.58
